# This is one part of the list.
# Assays:
# HSkMC = human skeletal muscle cells; assay: cytotoxicity call (relative viability < 0.9); settings: 10 µM
# HepG2 = assay: cytotoxicity call (relative viability < 0.9); settings: 10 µM
# S. aureus RN4220 = assay: growth inhibition call (relative growth <= 0.2); settings: 50 µM
SMILES,cytotoxicity call (HSkMC),cytotoxicity call (HepG2),growth inhibition call (S. aureus RN4220)
C[C@@H]1CN([C@H](C)CO)C(=O)c2cccc(NS(=O)(=O)c3ccccc3)c2O[C@H]1CN(C)Cc1ccc(Cl)c(Cl)c1,inactive,inactive,inactive
C/C=C/c1ccc2c(c1)O[C@@H](CN(C)S(=O)(=O)c1ccccc1OC)[C@@H](C)CN([C@@H](C)CO)S2(=O)=O,inactive,inactive,inactive
CN(C)CCCCNC(=O)[C@H]1C[C@H]2C(=O)N[C@@H](CCCC[N+](C)(C)C)C(=O)N2[C@H]1c1cccc(OCCO)c1,inactive,inactive,inactive
C[C@@H]1CN([C@@H](C)CO)C(=O)Cc2cc(NS(=O)(=O)c3cccs3)ccc2O[C@H]1CN(C)S(C)(=O)=O,inactive,inactive,inactive
CNC(=O)[C@H]1C[C@@H]2CN(c3ncc(F)cn3)C[C@H]1O2,inactive,inactive,inactive
CN(C)S(=O)(=O)N1CCO[C@@H]2CN(c3ncc(F)cn3)C[C@@H]21,inactive,inactive,inactive
CCn1c(=O)c(-c2cc(NC(=O)Nc3ccccc3)c(F)cc2Br)cc2cnc(NC)cc21,inactive,active,inactive
COc1ccc(S(=O)(=O)N[C@H]2C=C[C@H](CC(=O)N3CCC(Cc4ccccc4)CC3)O[C@@H]2CO)cc1,inactive,inactive,inactive
CN1CCN(C(=O)C[C@H]2CC[C@@H]3[C@H](COC[C@@H](O)CN3CC3CCCC3)O2)CC1,inactive,inactive,inactive
C[C@H](CO)N1C[C@H](C)[C@@H](CN(C)CC2CCCCC2)OCCCC[C@H](C)Oc2ccc(NC(=O)Nc3ccc(F)cc3)cc2C1=O,inactive,active,inactive
CN(C)C(=O)C[C@H]1CC[C@@H](NC(=O)C2CCOCC2)[C@@H](CO)O1,inactive,inactive,inactive
CN(C)CC(=O)N[C@@H]1CC[C@H](CC(=O)O)O[C@H]1CO,inactive,inactive,inactive
C[C@@H]1CN([C@@H](C)CO)C(=O)c2cc(N(C)C)ccc2O[C@@H]1CN(C)S(C)(=O)=O,inactive,inactive,inactive
COc1ccc(NC(=O)N(C)C[C@@H]2OCCCC[C@@H](C)Oc3ccc(NS(=O)(=O)c4c(C)noc4C)cc3C(=O)N([C@H](C)CO)C[C@H]2C)cc1,inactive,inactive,inactive
Cc1ccc(S(=O)(=O)N(C)C[C@H]2Oc3ccc(NS(=O)(=O)c4c(C)noc4C)cc3CC(=O)N([C@@H](C)CO)C[C@@H]2C)cc1,inactive,inactive,inactive
C[C@@H]1CN([C@H](C)CO)C(=O)c2cc(NC(=O)NC3CCCCC3)ccc2O[C@H]1CN(C)S(=O)(=O)c1cn(C)cn1,inactive,inactive,inactive
O=C(Nc1cccc([N+](=O)[O-])c1)C(=O)NC1CC1,inactive,inactive,inactive
C[C@@H]1CCCCO[C@@H](CN(C)Cc2ccc(C(=O)O)cc2)[C@@H](C)CN([C@H](C)CO)C(=O)c2cc(NC(=O)Nc3ccccc3)ccc2O1,inactive,inactive,inactive
C[C@H](CO)N1C[C@H](C)[C@@H](CN(C)CC2CCCCC2)Oc2ccc(NC(=O)Cn3cnnn3)cc2C1=O,inactive,inactive,inactive
C[C@@H]1CCCCO[C@@H](CN(C)S(=O)(=O)c2ccc(Cl)cc2)[C@H](C)CN([C@H](C)CO)C(=O)c2cc(NC(=O)Cc3ccccc3)ccc2O1,inactive,active,inactive
C[C@H](CO)N1C[C@H](C)[C@@H](CN(C)C(=O)Cc2ccccn2)Oc2cc(-c3cccc(C(=O)N(C)C)c3)ccc2S1(=O)=O,inactive,inactive,inactive
CCCNC(=O)N1C[C@]2(CCN(CC2)C(=O)Cc2cccnc2)c2c([nH]c3cc(ccc23)OC)[C@@H]1CO,inactive,inactive,inactive
COc1ccc(NC(=O)N(C)C[C@@H]2Oc3c(NS(=O)(=O)c4c(C)noc4C)cccc3C(=O)N([C@@H](C)CO)C[C@@H]2C)cc1,inactive,inactive,inactive
Cc1noc(C)c1S(=O)(=O)Nc1ccc2c(c1)C(=O)N([C@H](C)CO)C[C@@H](C)[C@H](CN(C)C(=O)Nc1ccc3c(c1)OCO3)O2,inactive,inactive,inactive
COC(=O)C1(C)CCCC2(C)c3ccc(C(C)C)cc3C(=O)CC12 (configuration not stated),inactive,inactive,inactive
O=C(C[C@@H]1CC[C@H]2[C@@H](COC[C@@H](O)CN2S(=O)(=O)c2ccc(Cl)cc2)O1)NCc1ccncn1,inactive,inactive,inactive
C[C@H](CO)N1C[C@H](C)[C@H](CN(C)S(=O)(=O)c2ccccc2)Oc2ccc(NC(=O)CCC(F)(F)F)cc2CC1=O,inactive,inactive,inactive
CCC(=C(c1ccccc1)c1ccc(OCCN(C)C)cc1)c1ccccc1.O=C(O)CC(O)(CC(=O)O)C(=O)O,inactive,inactive,active
COc1ccc(OC)c(S(=O)(=O)NC(=O)[C@@]2(C)CCN2C(=O)Cc2ccc(Cl)cc2Cl)c1,inactive,inactive,inactive

# Reference: the antibiotic and cytotoxicity screens of Wong et al. (2023)
